Source: PubChem BioAssay AID248 (DTP/NCI, 2004)
Toxic doses and inconclusive results are not listed. The source holds more than one record for some entries. Only these are listed. An entry can have further records. The values listed for one entry are repeated measurements in other runs, samples, wells, individuals or studies.

Tested on: L1210 leukemia ip in BDF1 mice, survival T/C
Assay: NCI In Vivo Anticancer Drug Screen. Data for tumor model L1210 Leukemia (intraperitoneal) in B6D2F1 (BDF1) mice
Settings: endpoint: mean survival time, higher = longer survival
[1] = dose: 20.0 mg/kg/injection, schedule: Q01DX Z (ip), vehicle: carboxymethylcellulose (CMC)

Nc1nc(SN=Nc2ccc([As](=O)(O)O)cc2)c2[nH]cnc2n1
T/C (dose: 3.0 mg/kg/injection, schedule: Q01DX Z (ip), vehicle: other): 122 % of control and 154 % of control

N#CCN(CC#N)CCCN(CC#N)CC#N
T/C (dose: 100.0 mg/kg/injection, schedule: Q01DX001 (ip), vehicle: saline with Tween-80): 94 % of control and 164 % of control

CCN(CC)CCNc1ccc(C)c2sc3ccccc3c(=O)c12 (tested in a mixture with another compound)
T/C (dose: 133.0 mg/kg/injection, schedule: Q01DX015 (ip), vehicle: saline): 114 % of control and 186 % of control

CCCCCCOC(=O)C(N)Cc1ccc(O)c(N(CCCl)CCCl)c1 (stereo not drawn)
T/C (dose: 0.25 mg/kg/injection, schedule: Q01DX001 (ip), vehicle: saline): 120 % of control and 157 % of control | T/C (dose: 2.2 mg/kg/injection, schedule: Q01DX009 (ip), vehicle: saline): 116 % of control and 196 % of control

O=[N+]([O-])c1cccc(N=Nc2ccc(O)cc2)c1
T/C (dose: 200.0 mg/kg/injection, schedule: Q01DX009 (ip), vehicle: Klucel (hydroxypropylcellulose) (HPC)): 88 % of control and 175 % of control

Nc1nccs1
T/C (dose: 6.0 mg/kg/injection, schedule: Q04DX002 (ip), vehicle: saline with Tween-80): 97 % of control and 189 % of control

O=C1OC(=O)C2C3OC(C(Br)C3Br)C12 (stereo not drawn)
T/C (dose: 25.0 mg/kg/injection, schedule: Q04DX003 (ip), vehicle: saline): 103 % of control and 162 % of control

CN=C(NN(C)C)c1ccc(NC(=O)c2ccc(C(=O)Nc3ccc(C(=NC)NN(C)C)cc3)cc2)cc1
T/C [1]: 123 % of control and 196 % of control

CC1CN1CC(O)C(O)CN1CC1C (stereo not drawn)
T/C (dose: 0.6 mg/kg/injection, schedule: Q01DX009 (ip), vehicle: saline): 121 % of control and 154 % of control | T/C (dose: 5.0 mg/kg/injection, schedule: Q04DX003 (ip), vehicle: saline): 105 % of control and 180 % of control | T/C (dose: 6.0 mg/kg/injection, schedule: Q01DX001 (ip), vehicle: saline): 102 % of control and 165 % of control

OCC1OC(n2nnc3c(=S)nc[nH]c32)C(O)C1O (stereo not drawn)
T/C (dose: 50.0 mg/kg/injection, schedule: Q01DX001 (ip), vehicle: saline): 94 % of control, 101 % of control, 166 % of control

O=c1[nH]nc(Br)c(=O)n1C(c1ccccc1)c1ccccc1
T/C (dose: 100.0 mg/kg/injection, schedule: Q01DX001 (ip), vehicle: carboxymethylcellulose (CMC)): 92 % of control, 94 % of control, 156 % of control

O=NN(CCCl)C(=O)Nc1ccc(CCCl)cc1
T/C (dose: 75.0 mg/kg/injection, schedule: Q01DX001 (ip), vehicle: carboxymethylcellulose (CMC)): 101 % of control and 319 % of control

NC(Cc1ccc(N(CCCl)CCCl)cc1)C(=O)O (stereo not drawn)
T/C (dose: 10.0 mg/kg/injection, schedule: Q01DX Z (ip), vehicle: carboxymethylcellulose (CMC)): 117 % of control and 154 % of control

N[C@H](C(=O)O)[C@@H]1CC(Cl)=NO1
T/C (dose: 3.12 mg/kg/injection, schedule: Q01DX009 (oral), vehicle: saline): 121 % of control and 154 % of control | T/C (dose: 8.0 mg/kg/injection, schedule: Q01DX009 (ip), vehicle: saline): 111 % of control and 150 % of control | T/C (dose: 100.0 mg/kg/injection, schedule: Q04DX003 (ip), vehicle: saline): 121 % of control and 179 % of control

CS(=O)(=O)CCN(N=O)C(=N)N[N+](=O)[O-]
T/C (dose: 45.0 mg/kg/injection, schedule: Q01DX Z (ip), vehicle: methylcellulose (MC)): 122 % of control and 153 % of control

NC1=NC(=S)C2N=C(N=Nc3ccc(C(=O)NC(CCC(=O)O)C(=O)O)cc3)N=C2N1 (stereo not drawn)
T/C (dose: 6.25 mg/kg/injection, schedule: Q01DX009 (ip), vehicle: Klucel (hydroxypropylcellulose) (HPC)): 109 % of control and 158 % of control

Nc1ncnc2c1ncn2C(C=O)OC(C=O)CO (stereo not drawn)
T/C [1]: 119 % of control and 172 % of control

C=C(COc1ccc(Cl)cc1)COc1ccc(Cl)cc1
T/C (dose: 400.0 mg/kg/injection, schedule: Q04DX002 (ip), vehicle: other): 89 % of control, 90 % of control, 181 % of control
